According to the antibiotic and cytotoxicity screens of Wong et al. (2023):
This is one part of the list.

What was measured:
HSkMC = human skeletal muscle cells; assay: cytotoxicity call (relative viability < 0.9); details: 10 µM
HepG2 = assay: cytotoxicity call (relative viability < 0.9); details: 10 µM
S. aureus RN4220 = assay: growth inhibition call (relative growth <= 0.2); details: 50 µM

| Compound | cytotoxicity call (HSkMC) | cytotoxicity call (HepG2) | growth inhibition call (S. aureus RN4220) |
| --- | --- | --- | --- |
| CC(=O)OC1CCC2(C)C(CC(OC(C)=O)C3(C)C4=CC(=O)OC(c5ccoc5)C4(C)CCC23)C1(C)C (stereo not drawn) [3alpha-ACETOXYDIHYDRODEOXYGEDUNIN ] | inactive | inactive | – |
| CC(=O)OC1CCC2(C)C(CC(OC(C)=O)C3(C)C4=CC(=O)OC(c5ccoc5)C4(C)CCC23)C1(C)C (stereo not drawn) [3alpha-ACETOXYDIHYDRODEOXYGEDUNIN] | – | – | inactive |
| CC(C)CC(NC(=O)C(C)NC(=O)CNC(=O)C(NC=O)C(C)C)C(=O)NC(C)C(=O)NC(C(=O)NC(C(=O)NC(C(=O)NC(Cc1c[nH]c2ccccc12)C(=O)NC(CC(C)C)C(=O)NC(Cc1c[nH]c2ccccc12)C(=O)NC(CC(C)C)C(=O)NC(Cc1c[nH]c2ccccc12)C(=O)NC(CC(C)C)C(=O)NC(Cc1c[nH]c2ccccc12)C(=O)NCCO)C(C)C)C(C)C)C(C)C (stereo not given) [GRAMICIDIN (gramicidin A shown)] | – | – | inactive |
| C=C1C2CCC3(C)C(c4ccoc4)OC(=O)CC13OC1CC(O)C(C)(C)C(CC(=O)OC)C12C (stereo not drawn) [3alpha-HYDROXY-3-DEOXYANGOLENSIC ACID METHYL ESTER] | – | – | inactive |
| CC(=O)OC1CCC2(C)C(CC(OC(C)=O)C3(C)C2CCC2(C)C(c4ccoc4)OC(=O)C4OC423)C1(C)C (stereo not drawn) [3beta-ACETOXYDEOXODIHYDROGEDUNIN] | – | – | inactive |
| CC1(C)CCC2(C)CCC3(C)C(=CCC4C5(C)CCC(OC(=O)c6ccccc6)C(C)(C)C5CCC43C)C2C1 (stereo not drawn) [beta-AMYRIN BENZOATE ] | inactive | inactive | – |
| C[C@@H]1CCCCO[C@@H](CN(C)C(=O)Nc2ccc(F)cc2)[C@@H](C)CN([C@H](C)CO)C(=O)c2cc(NC(=O)Nc3ccc(F)cc3)ccc2O1 | inactive | inactive | inactive |
| CC1(C)CCC2(C)CCC3(C)C(=CCC4C5(C)CCC(OC(=O)c6ccccc6)C(C)(C)C5CCC43C)C2C1 (stereo not drawn) [beta-AMYRIN BENZOATE] | – | – | inactive |
| CC(=O)OC1CCC2(C)C(CCC3C4CC=C(C(C)=O)C4(C)CCC32)C1 (stereo not drawn) [3-beta-ACETOXYALLOPREG-16-EN-20-ONE ] | inactive | inactive | – |
| COc1c(O)cc2oc3cc(O)c(CC=C(C)C)c(O)c3c(=O)c2c1CC=C(C)C [alpha-MANGOSTIN] | – | – | inactive |
| COc1cc2c(cc1OC)C1C(=O)c3c(O)cc4c(c3OC1CO2)C=CC(C)(C)O4 (stereo not drawn) [alpha-TOXICAROL (dl)] | – | – | inactive |
| CCC(CCC(C)C1CCC2C3CC=C4CC(O)CCC4(C)C3CCC12C)C(C)C (stereo not drawn) [beta-SITOSTEROL] | – | – | inactive |
| COc1ccc(S(=O)(=O)N(C)C[C@@H]2Oc3ccc(NS(=O)(=O)c4ccccc4)cc3CC(=O)N([C@H](C)CO)C[C@H]2C)cc1 | inactive | inactive | inactive |
| C=C1C2CCC3(C)C(c4ccoc4)OC(=O)CC13OC1CC(O)C(C)(C)C(CC(=O)OC)C12C (stereo not drawn) [3alpha-HYDROXY-3-DEOXYANGOLENSIC ACID METHYL ESTER ] | inactive | inactive | – |
| C[C@H](CO)N1C[C@H](C)[C@H](CN(C)S(C)(=O)=O)Oc2ccc(NC(=O)c3ccncc3)cc2CC1=O | inactive | inactive | inactive |
| CC(=O)OC1CCC2(C)C(CCC3C4CC=C(C(C)=O)C4(C)CCC32)C1 (stereo not drawn) [3-beta-ACETOXYALLOPREG-16-EN-20-ONE] | – | – | inactive |
| C[C@H](CO)N1C[C@H](C)[C@H](CN(C)Cc2ccc(C(=O)Nc3ccccc3N)cc2)Oc2ccc(NS(=O)(=O)c3ccc(Cl)cc3)cc2C1=O | inactive | inactive | inactive |
| CC(=O)OC1CCC2(C)C(CC(OC(C)=O)C3(C)C2CCC2(C)C(c4ccoc4)OC(=O)C4OC423)C1(C)C (stereo not drawn) [3beta-ACETOXYDEOXODIHYDROGEDUNIN ] | inactive | inactive | – |
| COc1c(O)cc2oc3cc(O)c(CC=C(C)C)c(O)c3c(=O)c2c1CC=C(C)C [alpha-MANGOSTIN ] | active | active | – |

| Compound | cytotoxicity call (HSkMC) | cytotoxicity call (HepG2) | growth inhibition call (S. aureus RN4220) |
| --- | --- | --- | --- |
| C=C1CCC=C(C)CCC2C1CC2(C)C.O (single isomer, unassigned; (-)) [(-)E-CARYOPHYLLENE hydrate] | – | – | inactive |
| C[C@H](CCC(=O)O)[C@H]1CC[C@H]2[C@@H]3CC=C4C[C@@H](O)CC[C@]4(C)[C@H]3CC[C@]12C [3beta-HYDROXYCHOL-5-ENIC ACID ] | inactive | inactive | – |
| Cc1noc(C)c1S(=O)(=O)N(C)C[C@H]1Oc2ccc(NC(=O)Nc3ccc4c(c3)OCO4)cc2CC(=O)N([C@H](C)CO)C[C@H]1C | inactive | inactive | inactive |
| CC(C)CC(NC(=O)C(C)NC(=O)CNC(=O)C(NC=O)C(C)C)C(=O)NC(C)C(=O)NC(C(=O)NC(C(=O)NC(C(=O)NC(Cc1c[nH]c2ccccc12)C(=O)NC(CC(C)C)C(=O)NC(Cc1c[nH]c2ccccc12)C(=O)NC(CC(C)C)C(=O)NC(Cc1c[nH]c2ccccc12)C(=O)NC(CC(C)C)C(=O)NC(Cc1c[nH]c2ccccc12)C(=O)NCCO)C(C)C)C(C)C)C(C)C (stereo not given) [GRAMICIDIN (gramicidin A shown) ] | active | active | – |
| CC(=O)OC1CC2C(C)(C)C(O)CCC2(C)C2CCC3(C)C(=CC(=O)OC3c3ccoc3)C12C (stereo not drawn) [3beta-HYDROXYDEOXODIHYDRODEOXYGEDUNIN ] | inactive | inactive | – |
| COc1cc2c(cc1OC)C1C(=O)c3c(O)cc4c(c3OC1CO2)C=CC(C)(C)O4 (stereo not drawn) [alpha-TOXICAROL (dl) ] | inactive | active | – |
| O=C(O)c1cccc(-n2cnnn2)c1 | inactive | inactive | inactive |
| COc1ccc(NC(=O)N(C)C[C@@H]2Oc3ccc(NS(C)(=O)=O)cc3CC(=O)N([C@H](C)CO)C[C@H]2C)cc1 | inactive | inactive | inactive |
| CC(=O)OC1CC2C(C)(C)C(O)CCC2(C)C2CCC3(C)C(=CC(=O)OC3c3ccoc3)C12C (stereo not drawn) [3beta-HYDROXYDEOXODIHYDRODEOXYGEDUNIN] | – | – | inactive |
| C[C@H](CO)N1C[C@H](C)[C@@H](CN(C)S(C)(=O)=O)Oc2ccc(NC(=O)Cc3ccccc3)cc2CC1=O | inactive | inactive | inactive |
| C[C@H](CCC(=O)O)[C@H]1CC[C@H]2[C@@H]3CC=C4C[C@@H](O)CC[C@]4(C)[C@H]3CC[C@]12C [3beta-HYDROXYCHOL-5-ENIC ACID] | – | – | inactive |
| CCC(CCC(C)C1CCC2C3CC=C4CC(O)CCC4(C)C3CCC12C)C(C)C (stereo not drawn) [beta-SITOSTEROL ] | inactive | inactive | – |
| CS(=O)(=O)NCCc1ccccc1 | inactive | inactive | inactive |
| CCN1C(=O)S/C(=C\C(=O)O)C1=O | inactive | inactive | inactive |
| NC(Cc1cc(I)c(Oc2ccc(O)c(I)c2)c(I)c1)C(=O)[O-].[Na+] [LIOTHYRONINE (L- isomer) SODIUM] | – | – | inactive |
| NC(C(=O)O)C(O)C(=O)O (stereo not drawn) [d,l-threo-3-HYDROXYASPARTIC ACID ] | inactive | inactive | – |
| NC(Cc1cc(I)c(Oc2ccc(O)c(I)c2)c(I)c1)C(=O)[O-].[Na+] [LIOTHYRONINE (L- isomer) SODIUM ] | inactive | active | – |
| NC(C(=O)O)C(O)C(=O)O (stereo not drawn) [d,l-threo-3-HYDROXYASPARTIC ACID] | – | – | inactive |
